According to patent publication US20250214977A1, “STAT6 INHIBITORS AND USES THEREOF” (Kymera Therapeutics, Inc., priority 2024, published 2025):

Target: T1, biotinylated truncated STAT6 (123-632)-avi (Homo sapiens, UniProt P42226)
T1 sequence (P42226 123-632 limits assumed): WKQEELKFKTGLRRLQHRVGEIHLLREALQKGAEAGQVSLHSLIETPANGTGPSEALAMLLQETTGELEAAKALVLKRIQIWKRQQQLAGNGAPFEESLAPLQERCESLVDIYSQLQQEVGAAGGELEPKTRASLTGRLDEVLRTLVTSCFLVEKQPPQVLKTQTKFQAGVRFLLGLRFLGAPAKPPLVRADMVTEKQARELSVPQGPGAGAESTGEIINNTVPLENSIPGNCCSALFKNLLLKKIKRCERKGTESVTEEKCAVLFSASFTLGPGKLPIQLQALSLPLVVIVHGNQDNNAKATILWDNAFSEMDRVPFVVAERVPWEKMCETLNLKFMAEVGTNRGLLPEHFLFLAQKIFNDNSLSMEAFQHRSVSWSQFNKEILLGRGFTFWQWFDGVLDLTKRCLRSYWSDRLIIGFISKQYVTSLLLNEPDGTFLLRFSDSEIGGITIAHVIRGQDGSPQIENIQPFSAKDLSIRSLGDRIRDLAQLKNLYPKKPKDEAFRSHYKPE
Test: Homogenous Time-Resolved Fluorescence (HTRF) binding assay
Settings: 0.15 nM biotinylated truncated STAT6 (123-632)-avi, 20 nM fluorescein-labeled probe

COc1ccccc1-c1cc(C2=CCCN(C(=O)CCn3ccnn3)C2)c(F)c2[nH]c(C(=O)N3CCN(c4nccc(-c5ccccc5)n4)CC3)cc12 [Example I-904] gave an IC50 (30 minutes at room temperature) of 100 to 1000 nM.
COc1ccccc1-c1cc(C2=CCCN(C(=O)CCn3ccnn3)C2)c(F)c2[nH]c(C(=O)N3CCC(C(=O)NCC4CC4)CC3)cc12 [Example I-1465] was tested, and the IC50 (30 minutes room temperature) was under 100 nM.
COc1ccccc1-c1cc(C2=CCCN(C(=O)CCn3cccn3)C2)c(F)c2[nH]c(C(=O)N3Cc4cnn(C)c4C3)cc12 [Example I-503] was tested, and the IC50 (30 minutes at room temperature) was 10000 to 100000 nM.
For CC(=O)N1CCC=C(c2cc(-c3ccc4cnn(C)c4c3)c3cc(C(=O)N(C)C)[nH]c3c2F)C1 [Example I-882], the IC50 (30 minutes at room temperature) was 100 to 1000 nM.
Molecule COc1ccccc1-c1cc(C2=CCCN(C(=O)CCn3ccnn3)C2)c(F)c2[nH]c(C(=O)Nc3snc(C)c3C#N)cc12 [Example I-1417] has an IC50 (30 minutes room temperature) of 100 to 1000 nM.
COc1ccccc1-c1cc(C2=CCCN(C(=O)CCn3ccnn3)C2)c(F)c2[nH]c(C(=O)N3CCN(c4cn(C)c(=O)c5ccccc45)CC3)cc12 [Example I-905] showed an IC50 (30 minutes at room temperature) of under 100 nM.
In the case of CN(C)C(=O)c1cc2cc(C3=CCCN(C(=O)Cc4ccc5ncnn5c4)C3)ccc2o1 [Example I-286], the IC50 (30 minutes at room temperature) is reported as 10000 to 100000 nM.
Molecule CN(C)C(=O)c1cc2cc(C3=CCCN(C(=O)CCn4ccnn4)C3)cc(Nc3cccc(OC(F)F)c3)c2o1 [Example I-1518] has an IC50 (30 minutes room temperature) of 100 to 1000 nM.
CCOc1ccc(-c2cc(C3=CCCN(C(=O)CCn4ccnn4)C3)c(F)c3[nH]c(C(=O)N4CCN(c5ncc(F)cc5OC)CC4)cc23)c(OCC)c1 [Example I-618] gave an IC50 (30 minutes at room temperature) of under 100 nM.
In the case of COc1ccccc1-c1cc(C2=CCCN(C(=O)CCn3ccnn3)C2)c(F)c2[nH]c(C(=O)N3CCN(C)CC3)cc12 [Example I-841], the IC50 (30 minutes at room temperature) is reported as under 100 nM.
COc1cccnc1N1CCN(C(=O)c2cc3c(N4CCCOCC4)cc(C4=CCCN(C(=O)CCn5ccnn5)C4)c(F)c3[nH]2)CC1 [Example I-592] showed an IC50 (30 minutes at room temperature) of under 100 nM.
With COC(=O)CCC#Cc1cccc2c1CC(C(=O)N1CCC=C(c3ccc4oc(C(=O)N(C)C)cc4c3)C1)N(C=O)C2 (stereo not shown) [Example I-175] the IC50 (30 minutes at room temperature) was 100 to 1000 nM.
Work on CCc1nc(C)ncc1-c1cc(C2=CCCN(C(=O)CCn3ccnn3)C2)c(F)c2[nH]c(C(=O)N3Cc4cnn(CC)c4C3)cc12 [Example I-764] yielded an IC50 (30 minutes at room temperature) of under 100 nM.
Work on CN(C)C(=O)c1cc2ccc(C3=CCCN(C(=O)C4CC4c4ccn(C)n4)C3)cc2[nH]1 (stereo not shown) [Example I-321] yielded an IC50 (30 minutes at room temperature) of 10000 to 100000 nM.
CN(C)C(=O)c1cc2cc(C3=CCCN(C(=O)Cc4cccnc4)C3)ccc2o1 [Example I-275] gave an IC50 (30 minutes at room temperature) of 10000 to 100000 nM.
For CCC(=O)N1Cc2ccccc2CC1C(=O)N1CCC=C(c2ccc3oc(C(=O)N(C)C)cc3c2)C1 (stereo not shown) [Example I-188], the IC50 (30 minutes at room temperature) was 10000 to 100000 nM.
Work on Cc1nc(-c2ccccc2F)c(C(=O)N2CCC=C(c3ccc4cc(C(=O)N(C)C)[nH]c4c3)C2)o1 [Example I-89] yielded an IC50 (30 minutes at room temperature) of 10000 to 100000 nM.
In the case of COc1ncccc1-c1cc(C2=CCCN(C(C)=O)C2)c(F)c2[nH]c(C(=O)N(C)C)cc12 [Example I-879], the IC50 (30 minutes at room temperature) is reported as under 100 nM.
In the case of COc1ccccc1-c1cc(C2=CCCN(C(=O)CCn3ccnn3)C2)c(F)c2[nH]c(C(=O)N(C)C3CC(C)C3)cc12 (stereo not shown) [Example I-1374], the IC50 (30 minutes room temperature) is reported as under 100 nM.
With COc1ccccc1-c1cc(C2=CCCN(C(=O)CCn3ccnn3)C2)c(F)c2[nH]c(C(=O)N3CCN(C4CC4)CC3)cc12 [Example I-325] the IC50 (30 minutes at room temperature) was under 100 nM.
COc1cc(F)cnc1N1CCN(C(=O)c2cc3c(-c4ccc(-c5ccccn5)cc4)cc(C4=CCCN(C(=O)CCn5ccnn5)C4)c(F)c3[nH]2)CC1 [Example I-1120] gave an IC50 (30 minutes at room temperature) of under 100 nM.
For COc1ccccc1-c1cc(C2=CCCN(C(=O)CCn3ccnn3)C2)c(F)c2[nH]c(C(=O)N3CCN(c4cc5cc[nH]c5nc4C#N)CC3)cc12 [Example I-401], the IC50 (30 minutes at room temperature) was under 100 nM.
CN(C)C(=O)c1cc2cc(C3=CCCN(C(=O)Cn4ncc5ccccc54)C3)ccc2o1 [Example I-284] showed an IC50 (30 minutes at room temperature) of 10000 to 100000 nM.
Molecule COc1ccccc1-c1cc(C2=CCCN(C(=O)CCn3ccnn3)C2)cc2[nH]c(C(=O)N(C)C)cc12 [Example I-1054] has an IC50 (30 minutes at room temperature) of under 100 nM.
COc1ccccc1-c1cc(C2=CCCN(C(=O)CCn3ccnn3)C2)c(F)c2[nH]c(C(=O)N3CCN(c4cccc(OC(F)(F)F)n4)CC3)cc12 [Example I-430] showed an IC50 (30 minutes at room temperature) of 100 to 1000 nM.
